Test results reported in the supplement of paper PMC10986608.
Several values for one entry are separate records, joined by “and”; a condition that tells them apart may be missing. Identical values can stand only once. This is one part of the list. Single values are uncertain, as repeats are few or missing.

These compounds were tested on Candida albicans DPL-15 (assay: growth (OD600) after compound treatment (apparently relative to screen median) (relative growth (fraction; screen median 1.02)); DPL-15 is a caspofungin-resistant clinical isolate; higher = more fungal growth (less antifungal activity)). Conditions: 25 µM; RPMI 1640; 48 h; 30 °C.

SMILES	growth
COC(=O)Cc1nnn2c1[C@H](C)[C@H](C(C)(C)C)OCC2	0.979
CC(C)c1ccc(Cn2nccc2Nc2cc(O)cc(O)c2C(=O)N2Cc3cn[nH]c3C2)cc1	1.1
COc1ccccc1Cn1nc(C)c2c1C(=O)NC2c1ccc(F)cc1 (configuration not stated)	1.08
O=c1c(O)c(-c2ccc(Br)cc2)[nH]c2cccc(F)c12	active: 0.0644
Cc1nnc(Nc2ccccc2)c2c(C)n(-c3ccccc3)c(C)c12	1.12
CCCCS(=O)(=O)N1CCCc2nc(-c3ccc(Br)cc3)ccc21	1
COC(=O)C/C=C/[C@H](C)[C@H](NC(=O)C(F)(F)F)c1cccc(OC)c1	0.993
Cc1ccc(S(=O)(=O)Oc2c(C[C@@]34CCCCC3=Nc3ccccc34)occc2=O)cc1	1.2
COC(=O)c1cc2c(c3c4ccccc4n(S(=O)(=O)c4ccccc4)c13)C(=O)N(Cc1ccc(C(F)(F)F)cc1)C2	1.05
CC(C)CC1=NCCNC2=C1C(c1cccc(C(F)(F)F)c1)N(c1ccccc1)C2=O (configuration not stated)	0.991
C=CCC1=C(OC)C(CC=C)(C/C=C/c2ccc([N+](=O)[O-])cc2)C(O)=C(C(=O)c2ccccc2)C1=O (configuration not stated)	1.06
CC#CCN1C(=O)N(C(C)=O)C(c2ccccc2)C(C(=O)OC)=C1CC (configuration not stated)	0.969
COC(=O)c1nnc(N[C@@H](Cc2c[nH]c3ccccc23)C(=O)OC)nc1C(=O)OC	0.95
COC(=O)CC#C[C@H](C)[C@@H](NS(=O)(=O)c1ccc([N+](=O)[O-])cc1)C(C)(C)C	1.15
CC(C)Cc1n[nH]c2c1C(c1ccccc1Cl)N(c1ccc3ncnn3c1)C2=O (configuration not stated)	1.04
CC(C)=C(C#N)Cc1cc(O)cc2oc3cccc(O)c3c(=O)c12	0.985
CCCC[C@]12Cc3ccccc3[C@H](O1)c1c(cc(-c3ccccc3)oc1=O)O2	1.04
COC1=C[C@@H]2C(=O)[C@H](C1=O)[C@@H]1c3ccccc3C[C@]21C	1.02
COc1cc2c3c4c(c(O)cc(C)c14)C(=O)O[C@@H]3[C@@H]1C[C@@H](C)O[C@]1(/C=C/CCC(=O)O)O2	1.04
COc1ccccc1Cn1nc(C)c2c1C(=O)NC2c1ccccc1 (configuration not stated)	0.949
CCC(C)CCOS(=O)(=O)NCC(F)(F)F (configuration not stated)	0.914
CC(C)Cc1nn(C)c2c1C(c1ccc(F)cc1)N(Cc1ccccc1)C2=O (configuration not stated)	0.963
CC(C)c1nn(-c2ccc(F)cc2)c2c1C(c1ccccc1)NC2=O (configuration not stated)	0.984
COc1ccc(N2C(=O)c3nn(C)c(-c4ccccc4)c3C2c2cccc(C(F)(F)F)c2)cc1 (configuration not stated)	1.03
CC(C)(C)CN(C(=O)OC(C)(C)C)S(=O)(=O)NC(C)(C)C	1.13
COc1ccc(N2C(=O)C3=C(C(c4ccccc4)=NCCN3)C2c2ccccc2)cc1 (configuration not stated)	1.1

SMILES	growth
COC(=O)C/C=C/[C@H](C)[C@@H](NC(=O)[C@@H](CC(C)C)NC(=O)OC(C)(C)C)c1ccccc1	1.05
CC(C)c1nn(Cc2ccccc2)c2c1C(c1cccc(C(F)(F)F)c1)NC2=O (configuration not stated)	1.04
COC(=O)C1=C(C)NC(=O)NC1c1ccc(Br)cc1 (configuration not stated)	0.896
O=C1CC2(CCCCC2)CNC(=O)c2cccc(c2)-c2cc(n[nH]2)COc2ccccc2CN1	1.2
COCCN1C(=O)CC[C@@]23C1=NC(C(=O)OC)=C(C(=O)OC)[C@@H]2N(Cc1ccccc1)c1ccccc13	0.86
COc1cc(O)c(C(=O)/C=C/c2cccnc2)c(OC(C)=O)c1	0.942
CCc1ccccc1-n1nc(C(C)C)c2c1C(=O)NC2c1ccccc1 (configuration not stated)	1.02
COC(=O)c1[nH]c2ccc(Cl)cc2c1[C@]12CCN(C(=O)Cc3cccc(F)c3F)[C@H]1Nc1ccccc12	1.06
Cc1cc(N)n(Cc2ccccc2Cl)n1	1.06
CCCCCCN(C(C)=O)S(=O)(=O)NC(C)(C)C	1.18
C=C1C(=O)N2CCCC2C(=O)N1Cc1ccccc1 (configuration not stated)	1.01
CO[C@@H]1[C@H](O)CC[C@]2(O)CN(C3CCN(Cc4ccccc4)CC3)[C@](C)([C@H](O)CC=C(C)C)[C@@H]12	1.21
CC1=CC2=CC(=O)C[C@@H](C)[C@]2(O)[C@@H]2CCC3(OCCO3)[C@@]2(O[Si](C)(C)C)C1	0.806
CC(C)=CCc1cc(O)c(O)c2oc3cc(O)cc(O)c3c(=O)c12	0.601 and 0.715
CCOC(=O)C1C=CC(OC)=CC=C1OC (configuration not stated)	1.21
COC(=O)C1=C(C)N(CCc2cccs2)C(=S)NC1c1ccc(C(F)(F)F)cc1 (configuration not stated)	1.1
Cc1cc(C)cc(-n2nc(C)c3c2C(=O)NC3c2cccc(C(F)(F)F)c2)c1 (configuration not stated)	0.886
COc1ccc(N2C(=O)c3[nH]nc(CCc4ccccc4)c3C2c2ccc(F)cc2)cc1 (configuration not stated)	0.984
CC(C)CC1=NCCN(C)C2=C1C(c1ccc(F)cc1)NC2=O (configuration not stated)	0.933
CC(C)CC1=NCCN(C)C2=C1C(c1cccc(C(F)(F)F)c1)N(c1ccccc1)C2=O (configuration not stated)	0.994
COc1cccc2c(=O)c3cccc(C(=O)O)c3[nH]c12	1.12
COC(=O)/C=C/c1ccccc1	1.11
C=CC[C@]12CC(=C)C[C@](CC=C)(C1=O)c1oc(-c3ccccc3)cc(=O)c1C2=O	0.973
C=C(C)CC1=C([O-])[C@]2(CC(=C)C)CC(=C)C[C@](C(=O)C(C)C)(C1=O)C2=O	1.14
COc1ccc([C@]23Oc4cc(OC)cc(OC)c4[C@](O)([C@H]2O)[C@@H](C(=O)N(C)OC)[C@@H]3c2ccccc2)cc1	1.12
CC(C)n1cc(Nc2cc(O)cc(O)c2C(=O)N2CC[C@@H](F)C2)cn1	1.07
